{"source": "patent US20090068110A1", "about": "“ANTIBODIES TO INSULIN-LIKE GROWTH FACTOR RECEPTOR” (Genentech, Inc., priority 2006, published 2009)", "key": {"[1]": {"target": "T1, human IGF-1R-ECD (Homo sapiens, UniProt P08069)", "T1 construct": "containing the extracellular domain (ECD, amino acids 1-902) tagged with 10 or 12 histidine residues at the carboxyl terminus; His10 or His12 (C); made in house; host or cells: CHO cells", "experiment": "phage-competition ELISA (phage IC50)", "details": "humanized hybridoma-derived clones displayed on phage as monovalent Fab; read-out: binding affinity (phage IC50) against IGF-1R-ECD", "procedure": "MAXISORP™ microtiter plates were coated with human IGF-1R-ECD at 5 μg/ml in PBS overnight and then blocked with CASEIN BLOCKER™ reagent (Pierce Biotechnology, Inc.). Phage from culture supernatants were incubated with serially diluted IGF-1R-ECD in PBS with 0.05% TWEEN 20™ surfactant (PBST) containing 1% bovine serum albumin (BSA) in a tissue-culture microtiter plate for 1 hour, after which 80 μl of the mixture was transferred to the target-coated wells for 15 minutes to capture unbound phage. The plate was washed with PBST, and HRP-conjugated anti-M13 (Amersham Pharmacia Biotech) was added (1:5000 in PBST containing 1% BSA) for 40 minutes. The plate was washed with PBST and developed by adding tetramethylbenzidine (TMB) substrate (Kirkegaard and Perry Laboratories, Gaithersburg, Md.). The absorbance at 450 nm was plotted as a function of target concentration in solution to determine an IC50. […] For the humanized hybridoma-derived clones, 2B4, 9F2, and 10H5, phage-Fab was used.\nThis assay was conducted as described in Section 1-II-A-(4) of this Example. For the YW95-phage-derived clones from the VH/VL phage library, phage-Fab-Zip was used."}, "[2]": {"target": "T1, human IGF-1R-ECD", "experiment": "solid phase binding assay"}}, "data": [{"molecule": "h10H5.vX: humanized anti-IGF-1R antibody, direct HVR graft of murine 10H5; heavy chain SEQ ID NO:90, light chain SEQ ID NO:91 (protein) chain 1: MGWSCIILFLVATATGVHSEVQLVESGGGLVQPGGSLRLSCAASGYTFTRFWIHWVRQAPGKGLEWVGEINPSNGRTNYNENFKNRFTISADTSKNTAYLQMNSLRAEDTAVYYCARGGRLDQWGQGTLVTVSS[skipping human IgG1 constant region] chain 2: MGWSCIILFLVATATGVHSDIQMTQSPSSLSASVGDRVTITCKASQNVGSNVAWYQQKPGKAPKLLIYSASYRYSGVPSRFSGSGSGTDFTLTISSLQPEDFATYYCHQYNNYPYTFGQGTKVEIKRTVAAPSVFIFPPSDEQLKSGTASVVCLLNNFYPREAKVQWKVDNALQSGNSQESVTEQDSKDSTYSLSSTLTLSKADYEKHKVYACEVTHQGLSSPVTKSFNRGEC", "values": [{"measurement": "IC50", "setting": "[1]", "value": 1.1, "unit": "nM"}, {"measurement": "IC50", "setting": "[2]; biotinylated IGF-I 80 ng/mL, read-out: IC50, inhibition of IGF-I binding to IGF-1R", "value": 3.4, "unit": "nM"}, {"measurement": "IC50", "setting": "[2]; biotinylated IGF-II 80 ng/mL, read-out: IC50, inhibition of IGF-II binding to IGF-1R", "value": 3.4, "unit": "nM"}]}]}
